This is an account of results in article PMC10668032.

This is one part of the list. At the low end of the ranking the order means little.

The test concerns the target SIX1 homeodomain (reference allele) (UniProt Q15475). Description: universal protein binding microarray. Conditions: Universal all-10-mer PBM (8x60K, AMADID 030236), 300 nM GST-tagged protein, Alexa Fluor 488 anti-GST; buffer, salt, pH and temperature not stated; high values mean tight binding; most listed sequences are background and not binding sites; double strand, one strand shown.
With CGATACCA, the binding signal turned out to be 0.455 E-score. On to CTAGCGAC, for which the binding signal is -0.122 E-score. For AGAACCAT the value was -0.178 E-score; for CTCCCAAC, -0.248 E-score; for AGAGTAGA, 0.112 E-score. For AAGCCGAG, the binding signal is -0.0919 E-score.

Regarding CGTTAATC, the binding signal was determined as 0.0692 E-score. For CAGGTGGA the value was -0.0882 E-score.

Take CGCTAGCA: the binding signal was -0.113 E-score. For CAATCCAG the value was 0.02 E-score; for GCCATGGC, -0.266 E-score. For CGAGCCCA the value was -0.0153 E-score; for CATGAGGC, -0.14 E-score. With CCGTTAGA, the binding signal came to 0.0115 E-score. As to ATAGAACG, the binding signal was -0.0978 E-score. Take ACAGAACC: the binding signal was -0.164 E-score. With AAGTGGGC the figure was -0.104 E-score; with CTGATATC, 0.465 E-score. With CACAGCAC the figure was -0.226 E-score.

In the case of CAGTCGCG, the binding signal was -0.0664 E-score.

As to CTCTGTGA, the binding signal was -0.00839 E-score.

In the case of CAAGACGA, the binding signal worked out at 0.0543 E-score. With CAAAGGAC the figure was -0.266 E-score; with AAACGTGA, -0.125 E-score. For AGACAGGC the value was -0.134 E-score; for ATGCTTGG, -0.118 E-score; for CACAGAAA, -0.192 E-score. For CTACACCA the value was 0.312 E-score. For AGCGTTCC, the binding signal was -0.275 E-score. For CTGCGTCA the value was -0.126 E-score. With GAGTTGAA the figure was -0.261 E-score. For GCTGCCGA the value was -0.153 E-score. Take GAGAGGCA: the binding signal is -0.0264 E-score. For ATTTTTGG the value was -0.258 E-score; for CCCACAGG, 0.0516 E-score. As to ACTCAGGC, the binding signal was -0.147 E-score.

Regarding AATGAGCG, the binding signal was -0.178 E-score. With CTCATGAG the figure was -0.0407 E-score; with AGAGGATA, 0.326 E-score; with CCGGCCAC, -0.295 E-score.

Turning to AGGCTCCC, the binding signal is -0.249 E-score. For ACAGGGCG the value was -0.18 E-score. In the case of ACTGCTAG, the binding signal was -0.07 E-score.

Regarding ACGGTCCC, the binding signal is -0.22 E-score.

As to CAACGCAG, the binding signal was -0.067 E-score. For AGGTGGAA the value was -0.0483 E-score.

As to AGCCTCCC, the binding signal is -0.151 E-score. With AAGTTCGG the figure was -0.217 E-score; with AACGCACT, -0.212 E-score. With AAATTTAG the figure was -0.089 E-score; with AATGGTTC, -0.198 E-score; with ACATAAAG, -0.149 E-score. With CGCTAGTC the figure was -0.146 E-score; with ACTGAGCA, -0.07 E-score; with ATACCATG, 0.362 E-score. For the sequence AAACAAAC, the binding signal was -0.226 E-score.

As to CAGACCAG, the binding signal is -0.23 E-score. With CTCGCGTC the figure was -0.0573 E-score. For ACGGCTGA the value was 0.056 E-score. As for AACCGAAT, the binding signal is -0.0453 E-score. ATCTCCAC: the binding signal is 0.204 E-score. For TGCCTGAA the value was -0.231 E-score. With ACTGCCAA the figure was -0.121 E-score.

Regarding AAATGTTG, the binding signal was -0.354 E-score. With AGTCATCA the figure was -0.18 E-score.

GGAATTGA: the binding signal was found to be 0.04 E-score. As for CCGAGTCG, the binding signal was found to be 0.0982 E-score. For CCTGGACA the value was -0.0535 E-score; for CAACCCCG, 0.022 E-score; for GTTTCTTA, -0.0974 E-score.

On to ACTGCAGG, for which the binding signal is -0.171 E-score. As to CGATGTAA, the binding signal was -0.0517 E-score.

Consider ATAAAAAG, for which the binding signal is -0.115 E-score. For ATAAGTGA the value was 0.0269 E-score; for GGTCCCAA, -0.209 E-score; for CCTGAACA, -0.153 E-score.

Take CATGTGGA: the binding signal is -0.0951 E-score. For AACAGAAC the value was -0.199 E-score; for GAGAGATC, 0.286 E-score. For GATGGTTA the value was 0.0146 E-score; for ATAGCGAT, 0.294 E-score. For ACATGCGG the value was -0.0397 E-score. For AGAAGTAA, the binding signal was -0.205 E-score. For AACCGGCG the value was 0.143 E-score; for TAAAACAA, -0.16 E-score. For ATAGTGTG the value was 0.0701 E-score. For GGTTAGTA the value was 0.114 E-score; for GAATCGGA, -0.0367 E-score.

Consider CACATCCG, for which the binding signal stood at 0.00255 E-score. With CCCGAACC the figure was 0.0575 E-score. With GGAATAAC the figure was 0.0281 E-score.

For the sequence CCCCCCGA, the binding signal was determined as 0.208 E-score.

Regarding CCGGAAGC, the binding signal was -0.0557 E-score. With CGAAATAG the figure was -0.0895 E-score; with GGAGGGAC, -0.0771 E-score; with ACAGGTCG, -0.114 E-score. For ACCAAGAC the value was 0.0105 E-score; for TAATCACA, 0.14 E-score; for AATTATAC, 0.165 E-score. For GGTGAATA the value was -0.0319 E-score. Turning to AAGGAACG, the binding signal was -0.024 E-score. For ACGCTACT the value was -0.146 E-score; for CAGGCGAA, -0.198 E-score. With CCCTCAAC the figure was -0.184 E-score; with TGCCCCAA, 0.0374 E-score; with TCGAATAA, -0.214 E-score. With ATTCTCTA the figure was 0.0459 E-score; with GATCCATA, 0.357 E-score; with CGGTCTTA, -0.0731 E-score.

GACGCACA: the binding signal is -0.0887 E-score. With CGTGCGCC the figure was -0.04 E-score; with ATAGTGGG, 0.0656 E-score. With ACGCGCCT the figure was -0.129 E-score; with ATTTATGG, 0.017 E-score. For ACCCAGCG the value was -0.0406 E-score; for CTACGCGC, -0.0911 E-score.

Turning to ACTAAACA, the binding signal was -0.262 E-score. For AGCTCGTA the value was -0.0164 E-score; for CGCGGCCA, -0.269 E-score; for CCACAGGA, -0.0776 E-score.

On to GCGACGGA, for which the binding signal is -0.0438 E-score. For CCAAGCTA, the binding signal is -0.131 E-score.

Consider ATAGGCCG, for which the binding signal was -0.135 E-score. With AACATAAG the figure was -0.265 E-score. For AGTACGGG the value was -0.146 E-score. For CGCCGTCA the value was -0.216 E-score; for CCTAGGCC, -0.222 E-score.

With GTTGAGTA, the binding signal amounted to 0.0416 E-score.

Consider ACCTTGTG, for which the binding signal turned out to be 0.00398 E-score. For GCTCTTAA the value was -0.0421 E-score; for TCTTCCAA, -0.158 E-score; for CGGATGTA, 0.151 E-score. For CACGTTTC the value was -0.185 E-score; for GAGCAGAA, -0.0849 E-score. For CACGGACA the value was -0.0737 E-score; for GACCGAGA, 0.0368 E-score. As for ACAGTTGA, the binding signal is -0.215 E-score. Consider ATCGGGAC, for which the binding signal is 0.0114 E-score. As to CCGTGGAG, the binding signal was -0.0415 E-score. For ATTTATAC the value was 0.22 E-score; for TAACGTAA, -0.133 E-score; for AGTACGAT, 0.248 E-score. For AAATGGTG the value was 0.0734 E-score; for ATAGTTTA, 0.0271 E-score; for ACTCCATC, 0.162 E-score. With ATCGATTA the figure was 0.157 E-score; with AGGCTCGC, -0.136 E-score. Regarding CCACTGCA, the binding signal was -0.173 E-score.

As for CAGTCTAG, the binding signal was -0.0945 E-score. On to CCTGATAC, for which the binding signal turned out to be 0.472 E-score. With ACTCCGAC the figure was -0.0674 E-score; with GATCGAGC, 0.218 E-score; with CAATCATA, 0.00404 E-score. Take CTCGATAA: the binding signal was found to be 0.0567 E-score. As for AACGGAAC, the binding signal was -0.327 E-score. Take AATGTAGC: the binding signal was -0.138 E-score. For AACTGGGT the value was 0.0276 E-score; for GGGTGCGA, 0.00352 E-score. With AAGGTGAT the figure was 0.195 E-score; with ACTGTAGA, 0.0919 E-score; with CGGATGGC, 0.117 E-score. For AGTACCCC the value was 0.088 E-score; for CAAGGAAC, -0.16 E-score; for AAAAACAA, -0.22 E-score. Turning to CAGAGGGG, the binding signal is 0.107 E-score. For CTCAGACA the value was 0.0138 E-score; for CAGGTAAG, -0.198 E-score.

Regarding TCTCCTCA, the binding signal was -0.0719 E-score.

As for AAGCATGG, the binding signal is -0.0526 E-score.

On to CGTGTATA, for which the binding signal worked out at 0.247 E-score. For ACCACGGG the value was -0.0144 E-score; for GGTAGATA, 0.336 E-score.
